Measured values taken from PubChem BioAssay AID1768 (National Center for Advancing Translational Sciences (NCATS), 2009).
Among all 270,000 compounds or so, about 620 (0.23%) were called active. The shares of active, inactive and inconclusive entries below differ from those in the screen. Calls come from the whole dose curve; as a rule, active = well fitted inhibition curve with a large enough effect in the polarisation, with a control signal flat (not every such curve was filed as active); inconclusive = small, poorly fitted or top-dose-only effect, or effect the other way, or a change in a side signal; inactive = no such curve, though single readings can be large or run the other way; the % refers to the polarisation. Potencies beside an inconclusive call are fits to weak or partial responses and may not hold up. “Side channel” marks fits to a control or component signal instead of the main read-out.
Potency is the fitted concentration of half-maximal effect; tags give direction and shape of the fitted curve or compound fluorescence and quenching.
Throughout, for FP activity change, negative = inhibition: % of control where 0% means no effect.

What follows are molecules tested against Menin (Homo sapiens) (UniProt O00255) (assay: qHTS Assay for Inhibitors Targeting the Menin-MLL Interaction in MLL Related Leukemias: Competition With Texas Red Labeled MLL-derived Mutant Peptide). Conditions: fluorescence polarization; FP activity change, negative = inhibition: at 61.6 µM (top of the series).
UniProt O00255, sequence (O00255 whole entry, looked up): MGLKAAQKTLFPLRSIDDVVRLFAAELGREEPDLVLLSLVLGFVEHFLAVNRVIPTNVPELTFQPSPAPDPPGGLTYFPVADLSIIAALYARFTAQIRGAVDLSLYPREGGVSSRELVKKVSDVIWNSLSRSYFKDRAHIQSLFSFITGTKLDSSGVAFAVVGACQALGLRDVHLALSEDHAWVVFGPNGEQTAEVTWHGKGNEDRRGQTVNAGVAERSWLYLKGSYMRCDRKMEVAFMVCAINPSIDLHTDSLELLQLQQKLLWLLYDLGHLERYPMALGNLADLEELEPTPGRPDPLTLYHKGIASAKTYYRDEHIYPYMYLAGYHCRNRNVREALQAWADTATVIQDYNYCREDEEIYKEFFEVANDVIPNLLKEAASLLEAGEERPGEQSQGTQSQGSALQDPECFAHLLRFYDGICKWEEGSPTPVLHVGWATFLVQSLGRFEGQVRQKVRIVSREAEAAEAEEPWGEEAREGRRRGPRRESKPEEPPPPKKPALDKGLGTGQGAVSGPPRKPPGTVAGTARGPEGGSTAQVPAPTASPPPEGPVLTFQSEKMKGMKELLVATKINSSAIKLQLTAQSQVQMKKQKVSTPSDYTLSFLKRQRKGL
For `Cc1sc(NC(=S)NC(=O)c2cccs2)nc1-c1ccc(C(C)C)cc1`, the Potency was inconclusive: 28.2 µM [inhibitor, single point].
With `O=C(N/N=C/c1cccc([N+](=O)[O-])c1)C1CC1c1ccccc1` (stereo not given) the Potency was inconclusive: 39.8 µM [quencher, side channel, single point].
For `CSc1ncccc1C(=O)N1CCCC(C(=O)c2ccc3ccccc3c2)C1` (stereo not given), the Potency was inconclusive: 15.8 µM [fluorescent, side channel, partial curve].
In the case of `Cc1nc(Nc2ccc(C(=O)O)cc2)sc1-c1ccccc1`, the Potency is reported as inconclusive: 3.16 µM [quencher, side channel, partial curve, poor fit].
For `CC(C)(C)c1ccc(/C([O-])=C(/C(=S)NCc2ccco2)[n+]2ccccc2)cc1`, the Potency was inconclusive: 28.2 µM [quencher, side channel, single point].
In the case of `Fc1ccccc1CNc1ccc(Cl)c(Cl)c1`, the Potency is reported as inconclusive: 10 µM [quencher, side channel, partial curve].
In the case of `NC(=O)c1ccc(NC(=O)COC(=O)c2ccccc2Nc2ccccc2)cc1`, the Potency is reported as inconclusive: 28.2 µM [fluorescent, side channel, partial curve].
`COc1cc2c(cc1OC)C(COc1ccccc1OC)N(C(=O)C(C)(C)C)CC2` (stereo not given) was tested, and the Potency was inconclusive: 10 µM [inhibitor, partial curve].
For `O=C(CCN1C(=O)/C(=C/c2ccco2)SC1=S)Nc1ccc(O)cc1C(=O)O`, the Potency was inconclusive: 39.8 µM [fluorescent, side channel, single point].
`CCCCN(CC)S(=O)(=O)c1ccc(C(=O)Nc2nnc(-c3ccccc3Cl)o2)cc1` was tested, and the Potency was inconclusive: 20 µM [quencher, side channel, partial curve].
In the case of `O=C(Nc1nnc(S(=O)(=O)N2CCCCCC2)s1)c1ccccc1Cl`, the Potency is reported as inconclusive: 28.2 µM [quencher, side channel, single point].
With `O=C(CSc1nc2ncc(Br)cc2[nH]1)c1cccc([N+](=O)[O-])c1` the Potency was inconclusive: 20 µM [quencher, side channel, single point].
For `COc1cc2c(-c3ccc(O)cc3)nc3c(c(C)nn3-c3ccccc3)c2cc1OC`, the Potency was inconclusive: 7.94 µM [quencher, side channel, full curve, poor fit].
In the case of `CC(C)Cn1c(SCC(=O)N2CCN(C(=O)c3ccco3)CC2)nc2ccccc2c1=O`, the Potency is reported as inconclusive: 25.1 µM [inhibitor, single point].
`COc1ccc2cc3c(N)c(C(=O)NCc4ccco4)sc3nc2c1` was tested, and the Potency was inconclusive: 28.2 µM [quencher, side channel, partial curve].
For `Cc1nc2c(cc1N)nc(C)n2Cc1ccccc1`, the “FP activity change, negative = inhibition” value was inactive: 5.5%.
`CCOC(=O)N1CCN(C(=O)c2cc(COc3c(F)cccc3F)on2)CC1` was tested, and the Potency was inconclusive: 3.98 µM [fluorescent, side channel, partial curve].
`CCCCn1c(SCC(=O)Nc2nnc(C)s2)nnc1-c1ccncc1` was tested, and the Potency was inconclusive: 31.6 µM [inhibitor, partial curve].
With `Cc1ccc(S(=O)(=O)NNC(=O)C2Cc3c(ccc4ccccc34)O2)cc1` (stereo not given) the Potency was inconclusive: 3.16 µM [inhibitor, partial curve].
In the case of `COc1ccc(/C=N/NC(=O)c2nc(Cl)c(Cl)c(N)c2Cl)cc1COc1ccc(F)cc1F`, the Potency is reported as inconclusive: 39.8 µM [inhibitor, single point].
For `CC(=O)Nc1nc(C)c(-c2csc(Nc3cccc(C(C)=O)c3)n2)s1`, the Potency was inconclusive: 14.1 µM [quencher, side channel, partial curve].
`COc1ccc(/C=C/C(=O)NCCc2c[nH]c3ccccc23)cc1OC` was tested, and the Potency was inconclusive: 39.8 µM [quencher, side channel, single point].
For `CCC(C)n1c(S(=O)(=O)O)nc2ccccc21` (stereo not given), the “FP activity change, negative = inhibition” value was inactive: 0.696%.
In the case of `Oc1ccc(/C=N/n2cc(-c3ccccc3)[nH]c2=S)cc1`, the Potency is reported as inconclusive: 11.2 µM [quencher, side channel, partial curve].
With `Cc1ccccc1NCCC(=O)Nc1ccc(Cl)cc1` the Potency was inconclusive: 28.2 µM [quencher, side channel, single point].
With `CC(=O)Nc1ccc2c(COC(=O)CC3Sc4ccccc4NC3=O)cc(=O)oc2c1` (stereo not given) the Potency was inconclusive: 15.8 µM [inhibitor, partial curve].
In the case of `O=C(COC(=O)/C=C/c1ccc(S(=O)(=O)N2CCc3ccccc32)cc1)NC1CCS(=O)(=O)C1` (stereo not given), the Potency is reported as inconclusive: 17.8 µM [quencher, side channel, single point].
With `CCn1c2ccccc2c2cc(NC(=O)c3ccc(Br)o3)ccc21` the Potency was inconclusive: 14.1 µM [quencher, side channel, partial curve].
For `CCN(CC)CCCN(Cc1cc2cc3c(cc2[nH]c1=O)OCO3)C(=S)NCc1ccco1`, the Potency was inconclusive: 17.8 µM [inhibitor, partial curve].
With `O=C(CSc1nnc(NC(=O)c2ccccc2)s1)NC1CCCC1` the Potency was inconclusive: 2.82 µM [inhibitor, full curve, poor fit].
For `CN1CCN(CCCNC(=O)c2ccc(/C=C3\Sc4ccccc4N(Cc4ccc(F)cc4)C3=O)cc2)CC1`, the Potency was inconclusive: 8.91 µM [fluorescent, side channel, full curve].
For `Oc1ccc(-c2csc(Nc3ccccn3)n2)cc1O`, the Potency was inconclusive: 14.1 µM [quencher, side channel, partial curve].
With `CC(NC(=O)c1ccncc1)c1ccc(Cl)cc1Cl` (stereo not given) the Potency was inconclusive: 8.91 µM [inhibitor, full curve, poor fit].
With `Cc1ccc(N2CC(C(=O)Nc3ccc(S(=O)(=O)Nc4nccs4)cc3)CC2=O)cc1C` (stereo not given) the Potency was inconclusive: 20 µM [quencher, side channel, single point].
With `Cc1ccc(-n2nc3c(=O)n(C(C)C(=O)NCc4ccco4)nc(C)c3c2C)cc1` (stereo not given) the Potency was inconclusive: 35.5 µM [fluorescent, side channel, partial curve, poor fit].
